These are yes or no findings as the source states them, for the method shown. Binding seen in cells or lysates may run through a third protein. Some results given as binding are weak or reduced against the parent protein; the word gives no strength. Where a sequence is shown, tags or fusion partners need not be part of it. Each block holds one molecule with its values, some of them ahead of it.
Key:
[1] = target: T1, FLAG-UPF1 (wild-type) (human) (UniProt Q92900); assay: co-IP; anti-FLAG IP of transiently transfected FLAG-UPF1 (wild-type or mutants) from HEK293T lysate; endogenous partners by western blot; in the absence or presence of RNase A (Figures 2B, S2B); cells also depleted of DHX34 by shRNA, rescued with T7-DHX34, or cotransfected with T7-DHX34
T1 sequence: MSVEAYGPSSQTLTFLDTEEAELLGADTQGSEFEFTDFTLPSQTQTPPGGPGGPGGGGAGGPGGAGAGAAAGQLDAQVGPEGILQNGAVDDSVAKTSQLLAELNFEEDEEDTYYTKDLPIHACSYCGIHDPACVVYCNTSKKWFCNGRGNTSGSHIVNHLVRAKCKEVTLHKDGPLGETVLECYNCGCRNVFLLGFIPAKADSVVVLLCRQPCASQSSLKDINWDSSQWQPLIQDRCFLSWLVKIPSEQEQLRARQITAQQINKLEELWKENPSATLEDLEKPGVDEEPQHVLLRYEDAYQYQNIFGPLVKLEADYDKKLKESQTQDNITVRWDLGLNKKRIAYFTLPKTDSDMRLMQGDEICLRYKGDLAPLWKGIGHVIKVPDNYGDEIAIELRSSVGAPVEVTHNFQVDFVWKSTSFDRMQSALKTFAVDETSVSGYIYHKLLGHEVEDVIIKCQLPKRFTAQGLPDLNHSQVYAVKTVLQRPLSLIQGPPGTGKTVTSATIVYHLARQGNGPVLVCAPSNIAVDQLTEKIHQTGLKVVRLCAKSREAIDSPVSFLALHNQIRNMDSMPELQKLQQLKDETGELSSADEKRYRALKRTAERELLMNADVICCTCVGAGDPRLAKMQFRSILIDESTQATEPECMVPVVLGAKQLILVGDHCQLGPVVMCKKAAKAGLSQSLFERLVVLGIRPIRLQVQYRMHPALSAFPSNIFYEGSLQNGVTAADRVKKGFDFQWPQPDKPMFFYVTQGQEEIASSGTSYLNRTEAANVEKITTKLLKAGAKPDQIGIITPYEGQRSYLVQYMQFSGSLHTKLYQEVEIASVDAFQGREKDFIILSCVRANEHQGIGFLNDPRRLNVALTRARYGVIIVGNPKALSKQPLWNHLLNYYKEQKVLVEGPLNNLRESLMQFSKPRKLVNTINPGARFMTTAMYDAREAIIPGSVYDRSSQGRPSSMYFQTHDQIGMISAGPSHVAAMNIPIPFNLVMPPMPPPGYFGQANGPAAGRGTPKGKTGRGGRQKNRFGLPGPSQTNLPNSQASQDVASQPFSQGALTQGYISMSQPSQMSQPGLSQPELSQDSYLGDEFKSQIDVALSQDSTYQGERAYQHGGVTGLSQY

Protein sequences, listed by entry. Tags and fused reporters are not part of them.
UniProt P38919: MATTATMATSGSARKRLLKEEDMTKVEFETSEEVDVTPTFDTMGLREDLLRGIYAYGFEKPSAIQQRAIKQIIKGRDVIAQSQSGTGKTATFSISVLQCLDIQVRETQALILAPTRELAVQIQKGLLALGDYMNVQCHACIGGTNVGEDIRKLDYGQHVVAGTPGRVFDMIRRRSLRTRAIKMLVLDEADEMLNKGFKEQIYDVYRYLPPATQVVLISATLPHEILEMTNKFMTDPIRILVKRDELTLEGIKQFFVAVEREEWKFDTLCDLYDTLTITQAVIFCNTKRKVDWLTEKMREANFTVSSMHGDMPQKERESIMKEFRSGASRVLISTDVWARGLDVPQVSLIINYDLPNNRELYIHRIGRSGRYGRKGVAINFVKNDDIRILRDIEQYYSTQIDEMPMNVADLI

FLAG-DHX34 (human) = target: T2, FLAG-DHX34 (human) (UniProt Q14147); assay: co-IP; anti-FLAG IP of transiently transfected FLAG-DHX34 from HEK293T lysate, in the absence or presence of RNase A; endogenous partners by western blot
T2 sequence: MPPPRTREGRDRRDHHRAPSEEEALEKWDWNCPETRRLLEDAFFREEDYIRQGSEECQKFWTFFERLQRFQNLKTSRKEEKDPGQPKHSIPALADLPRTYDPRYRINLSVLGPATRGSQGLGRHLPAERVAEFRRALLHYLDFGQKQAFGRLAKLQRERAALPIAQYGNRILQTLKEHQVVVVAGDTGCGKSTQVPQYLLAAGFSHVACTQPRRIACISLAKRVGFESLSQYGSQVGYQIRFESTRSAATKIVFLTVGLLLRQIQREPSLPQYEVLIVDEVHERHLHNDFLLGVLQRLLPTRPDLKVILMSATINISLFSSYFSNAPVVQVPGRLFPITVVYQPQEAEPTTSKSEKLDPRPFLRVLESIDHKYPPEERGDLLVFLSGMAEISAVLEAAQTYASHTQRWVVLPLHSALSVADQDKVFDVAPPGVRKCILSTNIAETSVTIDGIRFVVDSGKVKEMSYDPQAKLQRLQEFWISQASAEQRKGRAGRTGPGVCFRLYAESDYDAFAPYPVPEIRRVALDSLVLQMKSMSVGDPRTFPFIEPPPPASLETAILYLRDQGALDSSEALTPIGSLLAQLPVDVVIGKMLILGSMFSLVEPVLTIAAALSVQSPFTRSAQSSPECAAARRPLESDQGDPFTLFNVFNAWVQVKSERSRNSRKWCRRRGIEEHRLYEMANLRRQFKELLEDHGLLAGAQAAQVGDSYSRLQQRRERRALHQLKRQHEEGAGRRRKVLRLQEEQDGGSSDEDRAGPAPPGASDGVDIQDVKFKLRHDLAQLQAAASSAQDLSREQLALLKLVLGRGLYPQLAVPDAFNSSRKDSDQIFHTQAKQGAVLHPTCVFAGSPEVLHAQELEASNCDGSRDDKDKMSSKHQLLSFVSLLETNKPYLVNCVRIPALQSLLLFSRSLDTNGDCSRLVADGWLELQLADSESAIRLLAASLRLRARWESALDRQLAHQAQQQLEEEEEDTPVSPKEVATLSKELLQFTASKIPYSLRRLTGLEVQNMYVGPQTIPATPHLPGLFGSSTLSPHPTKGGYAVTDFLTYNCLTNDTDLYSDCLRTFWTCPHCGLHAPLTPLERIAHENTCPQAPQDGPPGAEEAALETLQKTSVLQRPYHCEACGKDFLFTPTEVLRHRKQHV

binding [1]: binds
binding (FLAG-DHX34 (human)): binds
Molecule: EJC component eIF4A3 (from UniProt P38919 1-411)

binding [1]: binds
binding (FLAG-DHX34 (human)): binds
B1: 5' to 3' exonuclease XRN2 (protein, UniProt Q9H0D6 1-950)
chain: MGVPAFFRWLSRKYPSIIVNCVEEKPKECNGVKIPVDASKPNPNDVEFDNLYLDMNGIIHPCTHPEDKPAPKNEDEMMVAIFEYIDRLFSIVRPRRLLYMAIDGVAPRAKMNQQRSRRFRASKEGMEAAVEKQRVREEILAKGGFLPPEEIKERFDSNCITPGTEFMDNLAKCLRYYIADRLNNDPGWKNLTVILSDASAPGEGEHKIMDYIRRQRAQPNHDPNTHHCLCGADADLIMLGLATHEPNFTIIREEFKPNKPKPCGLCNQFGHEVKDCEGLPREKKGKHDELADSLPCAEGEFIFLRLNVLREYLERELTMASLPFTFDVERSIDDWVFMCFFVGNDFLPHLPSLEIRENAIDRLVNIYKNVVHKTGGYLTESGYVNLQRVQMIMLAVGEVEDSIFKKRKDDEDSFRRRQKEKRKRMKRDQPAFTPSGILTPHALGSRNSPGSQVASNPRQAAYEMRMQNNSSPSISPNTSFTSDGSPSPLGGIKRKAEDSDSEPEPEDNVRLWEAGWKQRYYKNKFDVDAADEKFRRKVVQSYVEGLCWVLRYYYQGCASWKWYYPFHYAPFASDFEGIADMPSDFEKGTKPFKPLEQLMGVFPAASGNFLPPSWRKLMSDPDSSIIDFYPEDFAIDLNGKKYAWQGVALLPFVDERRLRAALEEVYPDLTPEETRRNSLGGDVLFVGKHHPLHDFILELYQTGSTEPVEVPPELCHGIQGKFSLDEEAILPDQIVCSPVPMLRDLTQNTVVSINFKDPQFAEDYIFKAVMLPGARKPAAVLKPSDWEKSSNGRQWKPQLGFNRDRRPVHLDQAAFRTLGHVMPRGSGTGIYSNAAPPPVTYQGNLYRPLLRGQAQIPKLMSNMRPQDSWRGPPPLFQQQRFDRGVGAEPLLPWNRMLQTQNAAFQPNQYQMLAGPGGYPPRRDDRGGRQGYPREGRKYPLPPPSGRYNWN

binding [1]: binds
B2: endogenous UPF3b (protein, UniProt Q9BZI7 1-483)
chain: MKEEKEHRPKEKRVTLLTPAGATGSGGGTSGDSSKGEDKQDRNKEKKEALSKVVIRRLPPTLTKEQLQEHLQPMPEHDYFEFFSNDTSLYPHMYARAYINFKNQEDIILFRDRFDGYVFLDNKGQEYPAIVEFAPFQKAAKKKTKKRDTKVGTIDDDPEYRKFLESYATDNEKMTSTPETLLEEIEAKNRELIAKKTTPLLSFLKNKQRMREEKREERRRREIERKRQREEERRKWKEEEKRKRKDIEKLKKIDRIPERDKLKDEPKIKVHRFLLQAVNQKNLLKKPEKGDEKELDKREKAKKLDKENLSDERASGQSCTLPKRSDSELKDEKPKRPEDESGRDYREREREYERDQERILRERERLKRQEEERRRQKERYEKEKTFKRKEEEMKKEKDTLRDKGKKAESTESIGSSEKTEKKEEVVKRDRIRNKDRPAMQLYQPGARSRNRLCPPDDSTKSGDSAAERKQESGISHRKEGGEE

binding [1]: binds
binding (FLAG-DHX34 (human)): binds
B3: SMG7 (protein, UniProt Q92540 1-1137)
chain: MSLQSAQYLRQAEVLKADMTDSKLGPAEVWTSRQALQDLYQKMLVTDLEYALDKKVEQDLWNHAFKNQITTLQGQAKNRANPNRSEVQANLSLFLEAASGFYTQLLQELCTVFNVDLPCRVKSSQLGIISNKQTHTSAIVKPQSSSCSYICQHCLVHLGDIARYRNQTSQAESYYRHAAQLVPSNGQPYNQLAILASSKGDHLTTIFYYCRSIAVKFPFPAASTNLQKALSKALESRDEVKTKWGVSDFIKAFIKFHGHVYLSKSLEKLSPLREKLEEQFKRLLFQKAFNSQQLVHVTVINLFQLHHLRDFSNETEQHTYSQDEQLCWTQLLALFMSFLGILCKCPLQNESQEESYNAYPLPAVKVSMDWLRLRPRVFQEAVVDERQYIWPWLISLLNSFHPHEEDLSSISATPLPEEFELQGFLALRPSFRNLDFSKGHQGITGDKEGQQRRIRQQRLISIGKWIADNQPRLIQCENEVGKLLFITEIPELILEDPSEAKENLILQETSVIESLAADGSPGLKSVLSTSRNLSNNCDTGEKPVVTFKENIKTREVNRDQGRSFPPKEVRRDYSKGITVTKNDGKKDNNKRKTETKKCTLEKLQETGKQNVAVQVKSQTELRKTPVSEARKTPVTQTPTQASNSQFIPIHHPGAFPPLPSRPGFPPPTYVIPPPVAFSMGSGYTFPAGVSVPGTFLQPTAHSPAGNQVQAGKQSHIPYSQQRPSGPGPMNQGPQQSQPPSQQPLTSLPAQPTAQSTSQLQVQALTQQQQSPTKAVPALGKSPPHHSGFQQYQQADASKQLWNPPQVQGPLGKIMPVKQPYYLQTQDPIKLFEPSLQPPVMQQQPLEKKMKPFPMEPYNHNPSEVKVPEFYWDSSYSMADNRSVMAQQANIDRRGKRSPGVFRPEQDPVPRMPFEKSLLEKPSELMSHSSSFLSLTGFSLNQERYPNNSMFNEVYGKNLTSSSKAELSPSMAPQETSLYSLFEGTPWSPSLPASSDHSTPASQSPHSSNPSSLPSSPPTHNHNSVPFSNFGPIGTPDNRDRRTADRWKTDKPAMGGFGIDYLSATSSSESSWHQASTPSGTWTGHGPSMEDSSAVLMESLKSIWSSSMMHPGPSALEQLLMQQKQKQQRGQGTMNPPH

binding [1]: binds
binding (FLAG-DHX34 (human)): binds
B4: SMG9 (protein, UniProt Q9H0W8 1-520)
chain: MSESGHSQPGLYGIERRRRWKEPGSGGPQNLSGPGGRERDYIAPWERERRDASEETSTSVMQKTPIILSKPPAERSKQPPPPTAPAAPPAPAPLEKPIVLMKPREEGKGPVAVTGASTPEGTAPPPPAAPAPPKGEKEGQRPTQPVYQIQNRGMGTAAPAAMDPVVGQAKLLPPERMKHSIKLVDDQMNWCDSAIEYLLDQTDVLVVGVLGLQGTGKSMVMSLLSANTPEEDQRTYVFRAQSAEMKERGGNQTSGIDFFITQERIVFLDTQPILSPSILDHLINNDRKLPPEYNLPHTYVEMQSLQIAAFLFTVCHVVIVVQDWFTDLSLYRFLQTAEMVKPSTPSPSHESSSSSGSDEGTEYYPHLVFLQNKARREDFCPRKLRQMHLMIDQLMAHSHLRYKGTLSMLQCNVFPGLPPDFLDSEVNLFLVPFMDSEAESENPPRAGPGSSPLFSLLPGYRGHPSFQSLVSKLRSQVMSMARPQLSHTILTEKNWFHYAARIWDGVRKSSALAEYSRLLA
